In PubChem BioAssay AID1508623 (National Center for Advancing Translational Sciences (NCATS), 2021):
In all, about 48,000 compounds went through this assay and about 450 (0.94%) were called active. Another 19% or so got no clear call; they are omitted. The call rests on the fitted dose curve; in most records, active means well fitted inhibition curve with a large enough effect; inconclusive means small, poorly fitted or top-dose-only effect; inactive means no such curve, though single readings can be large or run the other way. The list shows a part of the results.

Experiment: Primary qHTS for Identification of Small Molecule Inhibitors of Huntingtin Promoter Activity; further: nearly all actives have a fitted effect of over 50% in size
Conditions: HEK293 HTT promoter firefly luciferase reporter (activity 0% = vehicle and -100% = no light), 24 h; series mostly up to 57.5 µM; activity change, negative = inhibition: at the top concentration
Outline: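 Firefly luciferase signal from promoter-reporter HEK293 cells was scaled between vehicle (0%) and zero RLU (-100%). Compounds were tested at final concentrations of up to 57.5 uM over 24 h at 37 degrees C. PTC124 at 50 uM final served as control inhibitor.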
For CCOC(=O)c1c(-c2ccccc2)oc2ccc(OCc3cccc(Br)c3)cc12, the “activity change, negative = inhibition” value was inactive: -18.2%. For O=C(Cn1cc(C(=O)c2cccs2)c2ccccc21)Nc1ccc(Br)cc1, the “activity change, negative = inhibition” value was inactive: -6.06%. For O=C1CCSC2(C(=O)N(Cc3ccc(F)cc3)c3ccccc32)N1c1cccc(F)c1 (configuration not stated), the “activity change, negative = inhibition” value was inactive: -29.1%. For CCN1C(=O)c2ccccc2S(=O)c2ccc(C(=O)NCc3ccc(Cl)cc3)cc21 (configuration not stated), the “activity change, negative = inhibition” value was inactive: -41.3%. For CCN(c1cccc(C)c1)S(=O)(=O)c1c(C)nc2sc(C)cn2c1=O, the “activity change, negative = inhibition” value was inactive: -7.73%. With COc1cccc(C(c2sc3nc(-c4ccco4)nn3c2O)N2CCN(C)CC2)c1 (configuration not stated) the “activity change, negative = inhibition” value was inactive: 11.5%. In the case of COc1ccc(CNC(=O)CN(C)S(=O)(=O)c2ccc3c(c2)c(=O)n(C)c(=O)n3C)cc1, the “activity change, negative = inhibition” value is reported as inactive: -3.91%. In the case of COc1ccc(C(=O)Oc2cc(-c3ccc(OC)c(OC)c3)cc(=O)c3c(C)oc(C)c23)cc1, the “activity change, negative = inhibition” value is reported as inactive: -25.9%. In the case of C1N2CN3CN1CN(C2)C3, the “activity change, negative = inhibition” value is reported as inactive: 0.881%. For COc1ccc(-c2cc(C(=O)NCCc3ccccc3)c3c(-c4ccc(Cl)cc4)[nH]nc3n2)cc1, the “activity change, negative = inhibition” value was inactive: -9.56%. In the case of COc1ccc(CCNC(=O)CS(=O)(=O)Cc2nc(-c3cccc(Cl)c3)oc2C)cc1OC, the “activity change, negative = inhibition” value is reported as inactive: -14.6%. For COc1ccc(CNC(=O)c2cccn2-c2nnc(N3CCCCC3)s2)c(OC)c1, the “activity change, negative = inhibition” value was inactive: -22.6%. With Cc1ccc(CSc2nc3ccncc3n2Cc2nc(-c3ccccc3C)oc2C)cc1 the “activity change, negative = inhibition” value was inactive: -4.88%. With O=C(Cn1c(=O)n(Cc2ccc(C(=O)NCc3ccc4c(c3)OCO4)cc2)c(=O)c2ccccc21)Nc1ccccc1F the “activity change, negative = inhibition” value was inactive: -5.44%. With CCCNC(=O)c1c(NC(=O)c2ccccc2)sc2c1CCC(C(C)(C)C)C2 (configuration not stated) the “activity change, negative = inhibition” value was inactive: -7.33%. In the case of COc1ccc(-n2ccn(CC(=O)Nc3ccc(C)cc3C)c(=O)c2=O)cc1, the “activity change, negative = inhibition” value is reported as inactive: -9.21%. With CCCc1nnc(NC(=O)C(CC)Sc2nnc3c4ccccc4n(C)c3n2)s1 (configuration not stated) the “activity change, negative = inhibition” value was inactive: -22.7%. With COc1ccc(CNC(=O)c2sc3nc4n(c(=O)c3c2C)CCC4)cc1 the “activity change, negative = inhibition” value was inactive: 14.5%. With COc1ccc2c(c1)c1c(c(=O)n(-c3cccc(C)c3)c(=O)n1CC(=O)NCc1ccc(C)cc1)n2C the “activity change, negative = inhibition” value was inactive: 2.71%. For CC(C)(C)c1ccc(C(=O)NC(Cc2c[nH]c3ccccc23)C(=O)OCC(=O)c2ccc(Br)cc2)cc1 (configuration not stated), the “activity change, negative = inhibition” value was inactive: -17.3%. With Nc1ncnc2c1ncn2[C@@H]1O[C@H](CO)C[C@@H]1O the “activity change, negative = inhibition” value was inactive: -29.9%. For Cc1ccc(OCC(=O)Nc2ccc3nn(-c4ccc(C)cc4)nc3c2)cc1, the “activity change, negative = inhibition” value was inactive: 24.3%. In the case of Cc1cccc(CCNC(=O)CCS(=O)(=O)c2cc3c(cc2C)NC(=O)CO3)c1, the “activity change, negative = inhibition” value is reported as inactive: -7.38%. In the case of Cc1nn(CCC(=O)Nc2ccccc2Br)c(=O)c2nn(-c3ccccc3)c(C)c12, the “activity change, negative = inhibition” value is reported as inactive: -8.49%. In the case of CCOC(=O)N1CCC2(CC1)OC(=O)C(C)=C2C(=O)NCc1ccccc1OC, the “activity change, negative = inhibition” value is reported as inactive: -7.63%. With COc1ccccc1N1CCN(C(=O)CNS(=O)(=O)c2ccc(Br)s2)CC1 the “activity change, negative = inhibition” value was inactive: -39.1%. For Cc1cc(Cl)ccc1OCC(=O)N(Cc1ccc(N(C)C)cc1)C1CCS(=O)(=O)C1 (configuration not stated), the “activity change, negative = inhibition” value was inactive: -37.2%. With CCOC(=O)c1cc(-c2ccc(C)cc2)n(CC(=O)Nc2ccc(OC)cc2OC)c1C the “activity change, negative = inhibition” value was inactive: 4.19%. With Cc1ccc(NC(=O)CSc2nccn2C2CCCC2)cc1Cl the “activity change, negative = inhibition” value was inactive: -6.12%. In the case of CCN1CCN(C(c2ccc(F)cc2)c2sc3nc(-c4ccco4)nn3c2O)CC1 (configuration not stated), the “activity change, negative = inhibition” value is reported as inactive: -3.73%. In the case of Cc1ccc(S(=O)(=O)CCC(=O)N2CCN(c3nc4c(C)c(C)ccc4s3)CC2)cc1, the “activity change, negative = inhibition” value is reported as inactive: 0%. For COc1ccc(N2CCN(C(c3ccc(F)cc3)c3sc4nc(-c5ccco5)nn4c3O)CC2)cc1 (configuration not stated), the “activity change, negative = inhibition” value was inactive: -3.57%. For Cc1ccc(OCC(=O)Nc2nonc2-c2ccc(Br)cc2)cc1, the “activity change, negative = inhibition” value was inactive: -23.2%. For CCCCCN(C)CCC(O)(P(=O)(O)O)P(=O)(O)O, the “activity change, negative = inhibition” value was inactive: -7.04%. In the case of CC(=O)N1CCCC1c1nc2ccccc2n1Cc1ccccc1F (configuration not stated), the “activity change, negative = inhibition” value is reported as inactive: -1.89%. For CC(C)OCCCNC(=O)CN1C(=O)c2ccccc2Sc2ncccc21, the “activity change, negative = inhibition” value was inactive: -8.41%. With O=C(Nc1cccc2c1CCCC2)N1CCOc2ccc(Cl)cc21 the “activity change, negative = inhibition” value was inactive: -6.17%. With CCCC(=O)Nc1ccc2nc(SCC(=O)N3CCOCC3)sc2c1 the “activity change, negative = inhibition” value was inactive: 3.05%. For Cc1oc2ncnc(N3CCOCC3)c2c1C(=O)NCc1ccc(Cl)cc1, the “activity change, negative = inhibition” value was inactive: -19.6%. For N#C/C(=C\c1ccc(-c2cccc(Cl)c2)o1)C(=O)Nc1cccc(C(F)(F)F)c1, the “activity change, negative = inhibition” value was inactive: -16.2%. For Fc1ccc(N2CCN(c3ncnc4[nH]ncc34)CC2)cc1, the “activity change, negative = inhibition” value was inactive: -22.5%. In the case of CCCn1cnc2cc(NCc3ccc(OC)cc3OC)ccc21, the “activity change, negative = inhibition” value is reported as inactive: 2.26%. With Cc1cc(=O)oc2cc(OCC(=O)Nc3ccc(O)c(C(=O)O)c3)ccc12 the “activity change, negative = inhibition” value was inactive: -6.06%. With CCOc1ccc(CC(=O)N2CCc3cc(OC)c(OC)cc3C2COc2ccc3c(C)cc(=O)oc3c2)cc1 (configuration not stated) the “activity change, negative = inhibition” value was inactive: -16.8%. In the case of Cc1ccc(CNC(=O)CS(=O)(=O)Cc2nc(-c3ccccc3C)oc2C)cc1, the “activity change, negative = inhibition” value is reported as inactive: -14.6%. With CCCCCn1c(=O)[nH]c2cc(C(=O)NCc3ccccc3)ccc2c1=O the “activity change, negative = inhibition” value was inactive: -4.64%. For COc1ccc(CNC(=O)Cc2c(C)c3c(cc(C)c4c(C)c(C)oc43)oc2=O)cc1OC, the “activity change, negative = inhibition” value was inactive: -0.27%.
